These are yes or no findings as the source states them, for the method shown. For some of these results: Binding seen in cells or lysates may run through a third protein. Some entries that bind do so weakly or less than the wild type. Tags and fused reporters may be left off the sequences shown.
T1: GST‐Bdf1 fragment A (residues 149–317) (yeast) (UniProt P35817)
T1 sequence: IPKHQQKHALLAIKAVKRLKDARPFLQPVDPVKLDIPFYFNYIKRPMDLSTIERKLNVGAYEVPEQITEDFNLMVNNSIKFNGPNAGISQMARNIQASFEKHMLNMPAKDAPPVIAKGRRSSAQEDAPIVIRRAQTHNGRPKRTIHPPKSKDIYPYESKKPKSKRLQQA

By UniProt entry, the sequences of proteins in these tests, tags left out.
UniProt P22336: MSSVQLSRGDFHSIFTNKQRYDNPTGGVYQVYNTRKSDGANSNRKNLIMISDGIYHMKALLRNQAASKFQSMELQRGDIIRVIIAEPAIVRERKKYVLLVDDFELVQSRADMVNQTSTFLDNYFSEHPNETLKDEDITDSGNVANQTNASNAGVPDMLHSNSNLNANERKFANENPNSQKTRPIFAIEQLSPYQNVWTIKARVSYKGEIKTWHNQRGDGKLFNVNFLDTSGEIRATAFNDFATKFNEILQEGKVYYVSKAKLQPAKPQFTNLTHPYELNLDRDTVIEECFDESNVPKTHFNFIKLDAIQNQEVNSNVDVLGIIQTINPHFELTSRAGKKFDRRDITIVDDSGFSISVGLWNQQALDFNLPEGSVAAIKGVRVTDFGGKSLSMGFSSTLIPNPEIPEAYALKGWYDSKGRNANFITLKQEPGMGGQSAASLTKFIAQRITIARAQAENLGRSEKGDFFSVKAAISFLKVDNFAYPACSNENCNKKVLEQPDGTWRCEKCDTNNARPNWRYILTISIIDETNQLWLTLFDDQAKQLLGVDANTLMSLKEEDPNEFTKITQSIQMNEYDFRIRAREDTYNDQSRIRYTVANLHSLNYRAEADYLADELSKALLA

T2: GST‐bdf1‐ΔRB (yeast) (UniProt P35817)
T2 sequence: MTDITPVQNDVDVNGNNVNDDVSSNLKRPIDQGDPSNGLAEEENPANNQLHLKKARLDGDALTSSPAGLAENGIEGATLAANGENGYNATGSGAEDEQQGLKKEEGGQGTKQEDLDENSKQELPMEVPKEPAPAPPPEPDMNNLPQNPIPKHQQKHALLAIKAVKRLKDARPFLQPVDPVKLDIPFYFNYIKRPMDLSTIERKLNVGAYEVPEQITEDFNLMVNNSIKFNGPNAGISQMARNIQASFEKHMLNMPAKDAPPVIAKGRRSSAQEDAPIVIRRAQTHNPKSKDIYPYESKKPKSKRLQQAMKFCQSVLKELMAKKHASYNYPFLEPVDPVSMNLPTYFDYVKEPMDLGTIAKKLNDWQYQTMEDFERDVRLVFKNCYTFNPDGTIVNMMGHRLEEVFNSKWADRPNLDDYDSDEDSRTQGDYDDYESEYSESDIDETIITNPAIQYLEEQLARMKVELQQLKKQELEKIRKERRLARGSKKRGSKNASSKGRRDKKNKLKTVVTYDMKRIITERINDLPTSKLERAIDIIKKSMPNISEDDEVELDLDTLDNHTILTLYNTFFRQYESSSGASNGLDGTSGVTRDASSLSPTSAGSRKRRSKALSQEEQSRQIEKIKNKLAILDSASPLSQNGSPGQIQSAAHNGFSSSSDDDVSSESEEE

T3: GST‐Bdf1 residues 1–491 without fragment A (yeast) (UniProt P35817)
T3 sequence: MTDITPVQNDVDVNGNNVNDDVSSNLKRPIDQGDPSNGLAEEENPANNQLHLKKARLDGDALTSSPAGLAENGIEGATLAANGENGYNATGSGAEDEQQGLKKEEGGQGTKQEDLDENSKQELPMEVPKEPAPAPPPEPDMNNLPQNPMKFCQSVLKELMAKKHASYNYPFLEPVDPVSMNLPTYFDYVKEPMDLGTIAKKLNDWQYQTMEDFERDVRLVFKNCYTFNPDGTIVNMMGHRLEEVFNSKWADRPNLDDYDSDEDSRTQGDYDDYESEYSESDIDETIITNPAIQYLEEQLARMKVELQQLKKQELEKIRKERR

T4: GST‐Bdf1 residues 1‐558 without fragment A (yeast) (UniProt P35817)
T4 sequence: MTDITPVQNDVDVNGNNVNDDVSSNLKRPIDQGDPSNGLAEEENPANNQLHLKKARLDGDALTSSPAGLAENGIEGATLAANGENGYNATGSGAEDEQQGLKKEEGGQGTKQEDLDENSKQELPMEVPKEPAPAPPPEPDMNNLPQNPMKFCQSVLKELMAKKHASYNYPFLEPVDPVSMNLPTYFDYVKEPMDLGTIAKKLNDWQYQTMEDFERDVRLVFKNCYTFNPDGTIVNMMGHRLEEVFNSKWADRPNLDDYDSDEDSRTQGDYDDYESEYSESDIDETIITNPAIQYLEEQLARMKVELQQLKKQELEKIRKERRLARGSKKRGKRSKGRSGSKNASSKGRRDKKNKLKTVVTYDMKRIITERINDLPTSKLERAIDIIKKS

T5: GST‐Bdf1 residues 1–287 (yeast) (UniProt P35817)
T5 sequence: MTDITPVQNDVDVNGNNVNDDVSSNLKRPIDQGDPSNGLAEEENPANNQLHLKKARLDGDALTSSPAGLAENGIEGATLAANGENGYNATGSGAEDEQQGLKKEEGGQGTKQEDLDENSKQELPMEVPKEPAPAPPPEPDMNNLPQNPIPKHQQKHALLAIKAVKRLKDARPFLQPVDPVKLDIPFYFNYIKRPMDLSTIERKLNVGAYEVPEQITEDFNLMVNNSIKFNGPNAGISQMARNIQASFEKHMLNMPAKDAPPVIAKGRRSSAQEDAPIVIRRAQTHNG

T6: GST‐Bdf1 fragment B (residues 419–686) (yeast) (UniProt P35817)
T6 sequence: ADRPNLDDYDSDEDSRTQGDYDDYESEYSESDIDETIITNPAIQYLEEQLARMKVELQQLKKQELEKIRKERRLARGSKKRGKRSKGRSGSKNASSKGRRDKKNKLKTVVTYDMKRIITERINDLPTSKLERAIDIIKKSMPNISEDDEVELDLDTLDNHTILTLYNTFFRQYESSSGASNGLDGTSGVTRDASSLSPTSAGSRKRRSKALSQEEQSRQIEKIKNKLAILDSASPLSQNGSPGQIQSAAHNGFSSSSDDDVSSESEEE

B1: Bdf1‐3xFLAG (protein, UniProt P35817 1-686)
chain: MTDITPVQNDVDVNGNNVNDDVSSNLKRPIDQGDPSNGLAEEENPANNQLHLKKARLDGDALTSSPAGLAENGIEGATLAANGENGYNATGSGAEDEQQGLKKEEGGQGTKQEDLDENSKQELPMEVPKEPAPAPPPEPDMNNLPQNPIPKHQQKHALLAIKAVKRLKDARPFLQPVDPVKLDIPFYFNYIKRPMDLSTIERKLNVGAYEVPEQITEDFNLMVNNSIKFNGPNAGISQMARNIQASFEKHMLNMPAKDAPPVIAKGRRSSAQEDAPIVIRRAQTHNGRPKRTIHPPKSKDIYPYESKKPKSKRLQQAMKFCQSVLKELMAKKHASYNYPFLEPVDPVSMNLPTYFDYVKEPMDLGTIAKKLNDWQYQTMEDFERDVRLVFKNCYTFNPDGTIVNMMGHRLEEVFNSKWADRPNLDDYDSDEDSRTQGDYDDYESEYSESDIDETIITNPAIQYLEEQLARMKVELQQLKKQELEKIRKERRLARGSKKRGKRSKGRSGSKNASSKGRRDKKNKLKTVVTYDMKRIITERINDLPTSKLERAIDIIKKSMPNISEDDEVELDLDTLDNHTILTLYNTFFRQYESSSGASNGLDGTSGVTRDASSLSPTSAGSRKRRSKALSQEEQSRQIEKIKNKLAILDSASPLSQNGSPGQIQSAAHNGFSSSSDDDVSSESEEE

Assays:
[1] = biological target: T1, GST‐Bdf1 fragment A (residues 149–317) (yeast); assay: pull-down; GST or GST fusion proteins immobilized on GSH‐sepharose beads, incubated with His‐tagged proteins at 4 °C for 4 h; wash 20 mM Tris–HCl pH 7.4, 200 mM NaCl, 0.5 mM EDTA; Western blot with anti‐His antibody; both purified
GST‐bdf1‐ΔRB (yeast) = biological target: T2, GST‐bdf1‐ΔRB (yeast); assay: as above
[2] = biological target: T3, GST‐Bdf1 residues 1–491 without fragment A (yeast); assay: as above
[3] = biological target: T4, GST‐Bdf1 residues 1‐558 without fragment A (yeast); assay: as above
[4] = biological target: T5, GST‐Bdf1 residues 1–287 (yeast); assay: as above
[5] = biological target: T6, GST‐Bdf1 fragment B (residues 419–686) (yeast); assay: as above
Rfa1‐3xHA (yeast) = Rfa1‐3xHA (yeast) (UniProt P22336); assay: co-IP; yeast lysates, cells with or without MMS (0.1%, 90 min); benzonase 500 U/mL; anti‐HA or anti‐FLAG antibody and protein G‐agarose

Molecule	binding [1]	binding (GST‐bdf1‐ΔRB (yeast))	binding [2]	binding [3]	binding [4]	binding [5]	binding (Rfa1‐3xHA (yeast))
6xHis‐Rfa1 (from UniProt P22336 1-621)	binds	no binding	no binding	binds	no binding	binds	
B1							binds
